Variants at the floor of the assay are shown more often than the library holds them.
B1: TPR 5TU (parent)
chain: GGAUCUUCUCGAUCUAACAAAAAAGACAAAUCUGCCACAAAGCUUGAGAGCAUCUUCGGAUGCAGAGGCGGCAGCCUUCGGUGGCGCGAUAGCGCCAACGUUCUCAACUAUGACACGCAAAACGCGUGCUCCGUUGAAUGGAGUUUAUCAUG

Variants of: B1
Test: polymerase ribozyme fitness, log enrichment relative to wild type (log ratio); higher = more active; in vitro selection for triplet polymerase activity
How it was run: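 Streptavidin-bead capture of gel-excised extended constructs, followed by RT-PCR, closed a single triplicate in vitro selection round. That round began by annealing PCR-built, transcribed mutant libraries of each subunit of a heterodimeric triplet polymerase ribozyme with a biotinylated primer, the partner subunit and triplets, then incubating them frozen at −7 °C. After Illumina sequencing of inputs and outputs, genotypes needed ≥10 input reads and ≥1 read per output. Fitness is the base-2 logarithm of genotype enrichment over wild-type enrichment, using inverse-variance-weighted replicate averages.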

Variant	polymerase ribozyme fitness (log ratio)
C85G C95A	-1.68
C85U G124U	-0.801
C85G C87U A106U G117A A138C G152U	≤ -4.2
C87A G128C	≤ -4.2
C87G A120U	≤ -4.2
C85A U90C C114U	≤ -4.2
C87A C93U C103U	≤ -4.2
C87A G126A U135C	≤ -4.2
C87A A91U	≤ -4.2
C87A C118A G128U U148A	≤ -4.2
G86U U111A	≤ -4.2
C85G G141A	-2.85
G84U U134A A142C	≤ -4.2
C85G G88A	-4.01
C85U A142G	-1.38
C85U A142C	-1.12
C85U A107U C125A G126C	≤ -4.2
C87A G133C	≤ -4.2
C85U U127A G141A	≤ -4.2
C87A C116U C125U U134G U144A	≤ -4.2
C85U C129U	-0.359
C85U A97U A115U	-2.7
C87A A91U U145G	≤ -4.2
C87A G100A U134A	≤ -4.2

Variant	polymerase ribozyme fitness (log ratio)
C85A G92U A106U	≤ -4.2
C85U U130G	-3.71
C85A C99G A107G	≤ -4.2
C85G A122G C149A	≤ -4.2
C85G A97G A150U	-2.03
G86A G141U	-1.07
G86C U101A U104G A107C G112C	≤ -4.2
C85G G133C U135C	≤ -4.2
G86A A142C	-2.27
G86A U148C	-1.5
C85A A119U	-2.98
C85U A91C G128A	≤ -4.2
C85A C95U C116U G128C G140U	≤ -4.2
G84U G100A A106U A137C	≤ -4.2
C85G G143U	-3.79
C85A A113C C149G	≤ -4.2
C87A G100U	≤ -4.2
C85U U139A	≤ -4.2
C85G C93A A110G C132U	≤ -4.2
C87A A107G	≤ -4.2
C85G A115C A119U G143C U144C	≤ -4.2
C85A C108U A142U	≤ -4.2
G86A C123U G133U	≤ -4.2
C85U U90A A106G U135A G136A A137C	≤ -4.2

Variant	polymerase ribozyme fitness (log ratio)
C85U C95U	-1.72
C85A A106G C125A U130G U139C	≤ -4.2
C85G A106C G141U G143U U151A	≤ -4.2
G84U G92A G94A C99G U135A G141U	≤ -4.2
C85G C123G U139A	≤ -4.2
C85A C108U C114U	≤ -4.2
G86U U104G C116A	-2.52
C85G A107U	≤ -4.2
G84U U148C	≤ -4.2
C87G A113C A138U U146C	≤ -4.2
C87G C93A C105U A107G A137G A142U	≤ -4.2
G86A U104G	-2.29
C85G G136U	≤ -4.2
C87G A89U A120C	≤ -4.2
C85U A89C	-1.13
C85U U135G G141A	-3.54
C87A U127G	≤ -4.2
C85U C95G G100C	≤ -4.2
C85U A98C G124C	-1.37
C85A G126C	-0.131
C85A G126U	-0.409
C85U C87U A137U	≤ -4.2
G84U C85U C87G C96A A142U U148G	≤ -4.2
G86U C118U C125U	-4.01

Variant	polymerase ribozyme fitness (log ratio)
C87A A98G	≤ -4.2
G86U C93G	-1.28
G86U A91C C99G U109G	≤ -4.2
C87A U148A	≤ -4.2
C85G A113C U130C C131U	≤ -4.2
C87A G117C A122C G133U	≤ -4.2
C87G C99U	≤ -4.2
C87G C99A	≤ -4.2
C85U G88A A98U	-3.79
G86C A98C	-1
C85G C96U A113U	-3.8
G84U C93A U101C A107G G133U G141C	≤ -4.2
C85G A97C G100U G128C G133A G141U U148C	≤ -4.2
G84U U102G	-4.16
G86C G140U	≤ -4.2
G86C A138G	≤ -4.2
G86A G100A	-3.89
C87A C95U	≤ -4.2
C85U A89U G126U U145G	-3.94
C85A A107C G136C	≤ -4.2
G84U C93U C105A A137C A138C U144C A150C	≤ -4.2
C85A U109G C118U	-1.54
C85A U134C	-0.169
C85U C118U	-0.662

Variant	polymerase ribozyme fitness (log ratio)
C85A A106G G140C	≤ -4.2
C85G C116A	-0.515
C85G C116U	-1.66
G86U G141A U146C	-1.62
C87G A119U A122C C149A	≤ -4.2
C85U C93U U134G	-4.16
C87A A119U A147C	-4.05
C85A U148A	-3.51
G84U C87G U90C C96U U145G	≤ -4.2
C85A A107G G117U G136A A150G	≤ -4.2
C85U C99G G126A U135G	≤ -4.2
C85G A106G C118U A119G G143A U148A	≤ -4.2
G86C U101G G124U G152A	-4.15
G86U U104A G117C	-2.37
G84U U127G	-3.43
C87G A142G	-4.14
C87A G124U U144C	≤ -4.2
C85G G92C A121C C132U U146A	≤ -4.2
G86A A121U	-0.51
C85A C93U C125A U148A	≤ -4.2
G84U G100A C116G U151A	≤ -4.2
C85G A91U U127C	≤ -4.2
C85U U145C	-0.732
G84U C116U G141C	-4.04

Variant	polymerase ribozyme fitness (log ratio)
G86U A89G U145A	-3.28
G86U U90C A110G	≤ -4.2
C85U C93G	-3.83
C87A C96A C114G G136U	≤ -4.2
G86U C123G	-1.55
C85G C93A	≤ -4.2
C85A U144C	-0.693
G84U G117U A121G	-1.75
C85U G140A	-3.24
C85A A107U	≤ -4.2
C87A A97G A142C	≤ -4.2
C85U A107G	≤ -4.2
C85G C96U C116A A137C	≤ -4.2
G86A C103U A107G	≤ -4.2
C85A C87A	≤ -4.2
C85A C87U	≤ -4.2
C85U G94U A97U	-0.116
C85A C125G	-1.13
C85G G86C G143U	≤ -4.2
C85G C87U U145A	-2.77
C85G G92U G136A G141A	-3.06
C87A A97C	≤ -4.2
C87A A97U	≤ -4.2
C85U U90C C96A A106U	≤ -4.2

Variant	polymerase ribozyme fitness (log ratio)
G86U G92U	-1.95
C85U A115U C118A A120G	-3.37
C85A C87A C108U A121U U135C G141A U145A	≤ -4.2
G84U G124C G140U U146C	≤ -4.2
C85U G141C	-0.765
G84U A110G	≤ -4.2
C85A U135C	-2.15
C85G U102C G141U	-3.43
G84U G126U	-1.45
C85G A147U	-0.872
G86C C114U	-3.9
C85U A150U G152A	-0.481
G86C A98G U111G	≤ -4.2
C85U A89U C105G	-1.55
C85U A89U C105U	0.517
C85U C93G A113G C114U U127A C149G G152U	≤ -4.2
C85U G88C C118A C131U	≤ -4.2
C87A C103U	≤ -4.2
C85U G94A G152C	-3.09
C87G C93A	-3.63
C87G A107U	≤ -4.2
G84U U104G	-2.26
G84U A110U A113U	≤ -4.2
